{
  "source": "patent US11312769B2",
  "about": "“Anti-TMEFF1 antibodies and antibody drug conjugates” (Bluefin BioMedicine, Inc., priority 2017, dated 2022)",
  "key": {"[1]": {"tested_on": "hTMEFF1-ECD recombinant deletion mutants", "test": "Binding domain determination with hTMEFF1-ECD deletion mutants (Octet)", "parameters": "species or system human; key: FS1—follistatin domain 1; FS2—follistatin domain 2", "conditions": "full length TMEFF1 ECD vs ΔFS1, ΔFS2, ΔFS1&FS2", "from_the_text": "TMEFF1 recombinant proteins expressing 3 different deletion mutants, AFS1 (AFollistatin Domain 1), AFS2 (AFollistatin Domain 2) or AFS1&FS2 were used to identify binding domains among different antibodes using an Octet Red instrument with Anti-Penta-His (HIS 1K) biosensors. Expression of the 3 deletion mutants was confirmed by WB analysis. 100 ngs of purified TMEFF1 ECD was run along with unpurified supernatant of transfected CHO cells with the different deletion mutants. HIS 1K biosensors were loaded by submerging the biosensors into wells containing 10 ug/ml of full length TMEFF1 or one of 3 different deletion mutants (AFS1, AFS2 or AFS1&FS2) for 60 seconds. Following the loading step, the biosensors were then dipped for 30 seconds in PBS before immersion for 30 seconds in 200 ul of unpurified recombinant antibodies for 30 seconds. The biosensors were then dipped briefly (30 seconds) in PBS to observe any dissociation. Samples were determined to show binding or no binding by comparing to a control well that contained no recombinant antibody. Differential binding to the deletion mutants allowed for determination of binding sites on TMEFF1 recombinant protein. For cases where the antibody bound all 3 recombinant proteins, the binding is outside of the deleted domains. For the case where binding is observed only on full length TMEFF1 and AFS2, the antibody is binding in the ΔFS1 domain.\n26 of the identified antibodies were checked for epitope domain binding by Octet™ using the hTMEFF1-ECD recombinant deletion mutants (see Table 7, below)."}, "293-hTMEFF1 cells": {"tested_on": "293-hTMEFF1 cells", "test": "Flow based antibody internalization assay", "format": "cell-based, human", "conditions": "293-hTMEFF1 fixed with PFA, antibody 1 ug/ml, 30-120 min", "experimental": "For Flow based internalization assay, 293-hTMEFF1 cells were collected and either fixed with 4% paraformaldehyde (PFA) for 20 minutes at 37° C. or kept live on ice. Cells were then incubated on ice for 40 minutes with anti-TMEFF1 antibody at 1 ug/ml, washed 2× with ice cold PBS, resuspended in complete warm media and incubated at 37° C. for 30, 60 or 120 minutes. Live cells were then fixed at those time points, washed 2× with PBS and labeled with fluorescent conjugated secondary antibody for 30 minutes on ice.\nAntibody mediated TMEFF1 internalization was evaluated by Flow cytometry with five human anti-TMEFF1 antibodies in 293-hTMEFF1 cells. Fixed cells were treated with the antibody as a control of antibody loss due to detachment rather than internalization which would result in reduce signal. Thus a constant signal over time in fixed cells and a loss of signal in live cells would indicate antibody internalization. […] In live cells, it was observed that most antibodies show about a 50% internalization by 30 min of treatment (FIG. 1B)."}, "recombinant TMEFF1": {"target": "T1, recombinant TMEFF1 (Homo sapiens, UniProt Q8IYR6)", "T1 construct": "generated to secrete the ECD from CHO cells to assist with biophysical evaluations; His tag (C); made in house; host or cells: CHO (ExpiCHO)", "T1 sequence (Q8IYR6 40-330 limits assumed)": "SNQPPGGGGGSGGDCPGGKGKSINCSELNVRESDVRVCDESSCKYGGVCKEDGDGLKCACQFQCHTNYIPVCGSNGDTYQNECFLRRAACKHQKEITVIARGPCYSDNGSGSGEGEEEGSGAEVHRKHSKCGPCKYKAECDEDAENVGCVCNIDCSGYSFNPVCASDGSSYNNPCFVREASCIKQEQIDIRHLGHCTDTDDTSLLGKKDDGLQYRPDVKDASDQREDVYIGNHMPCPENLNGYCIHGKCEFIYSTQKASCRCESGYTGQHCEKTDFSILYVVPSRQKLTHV", "test": "Binding competition binning (Octet)", "conditions": "seven antibodies, 3 bins", "experimental": "Binding competition among different antibodies was determined using a real-time, interferometry assay on an Octet Red™ instrument with Protein A-conjugated biosensors. To assess whether two antibodies competed for binding to a recombinant TMEFF1 protein, the assay was performed as follows. Protein A biosensors were first submerged into wells containing 10 ug/mL of individual monoclonal antibodies for 5 minutes. Following the capture step, the biosensors were dipped briefly (15 seconds) into buffer and then any unoccupied sites on the biosensor were saturated by submerging them for 5 minutes into wells containing 100 ug/mL of an irrelevant monoclonal antibody. The Octet biosensors were then dipped briefly (15 seconds) in buffer before immersion for 1 minute into wells containing recombinant TMEFF1. The biosensors were dipped briefly (15 seconds) in buffer before immersion for 1 minute into wells containing a second recombinant antibody.\nFor the control case where the second antibody was the same as the first, there was no increase in signal, because there was no additional binding to the recombinant target.\nFor the control case where buffer was used instead of the first antibody, no recombinant target bound the non-quenching antibody on the biosensor and no second antibody bound the biosensor. […]"}, "H526 xenografts": {"tested_on": "H526 xenografts", "test": "In vivo efficacy in H526 xenograft model", "parameters": "species or system Nu/Nu mice", "experimental": "Human monoclonal antibodies were conjugated to the valine-alanine-pyrrolobenzodiazepine, MA-PEG8-VA-PAB-SG3199 (PBD) as previously described (Stefano J. E., Busch M., Hou L., Park A., Gianolio D. A. (2013) Micro- and Mid-Scale Maleimide-Based Conjugation of Cytotoxic Drugs to Antibody Hinge Region Thiols for Tumor Targeting. In: Ducry L. (eds) Antibody-Drug Conjugates. Methods in Molecular Biology (Methods and Protocols), vol 1045. Humana Press, Totowa, N.J.). […] After this incubation, the entire mixture was run over a gel filtration column to remove free drug. A fraction of the eluate was then used for concentration and DAR determination using A280 and HIC respectively. The drug to antibody ratio for 30C10-PBD was 1.7. The drug to antibody ratio for control human IgG1-PBD (Ctrl) was 3.0.\nFor efficacy studies with antibody drug conjugates, 6-8 weeks old female Nu/Nu mice (Taconic) were inoculated subcutaneously in the dorsal right flank with 2.5 million H526 cells in 1× PBS with equal volume of Matrigel (Corning, Cat #356234). When tumor volumes reached 200-400 mm3 (day 0), animals were randomized into 3 groups of 6-7 each and administered 3× IV injections every 4 days (IV/Q4Dx3) of anti-TMEFF1-PBD or hIgG-PBD control antibody at 1 mg/kg or PBS (vehicle) control. Tumor volumes were determined using digital calipers (Fred V. Fowler Company, Inc.) using the formula (length×width^2)×0.52. Measurement was performed twice weekly for the first 30 days after initial dosing, then once a week until the end of the study.\nEach animal was euthanized when its tumor reached the endpoint size of 1500 mm^3 or on the final day of the study (Day 98), whichever came first. The time to endpoint (TTE) for each mouse was defined as the time elapsed for an animal to be removed from the study. […] Animals classified as NTR (nontreatment-related) deaths due to unknown causes were excluded from TTE calculations (and all further analyses).\nTreatment outcome was determined from percent tumor growth inhibition (TGI) and tumor growth delay (TGD). TGI is defined as the percent decrease in average tumor volume of treated versus control group and calculated from the following equation:\n[formula] Where TVtx Day X=Average tumor volume of treated group on Day X; TVtx Day 0=Average tumor volume of treated group on Day 0; TVveh Day X=Average tumor volume of control group on Day X; TVveh Day 0=Average tumor volume of control group on Day 0.\nTGI of the treatment group was assessed when 50% of animals in control group has reached their TTE, which is on Day 15 on this study.\nTGD or T-C is defined by difference between median TTE of treated (T) versus control (C) groups and calculated from the following equation: TGD=Median of TTEtx−Median of TTEveh Where Median of TTEtx=median of TTE of treated group; Median of TTEveh=median of TTE of vehicle group.\nMice were monitored for regression responses. An animal with a complete tumor regression at the termination of the study was classified as a tumor free survivor (TFS).\nAnimals were weighed weekly for the study. The mice were observed frequently for overt signs of any adverse, treatment-related side effects, and clinical signs of toxicity were recorded when observed. Acceptable toxicity is defined as a group mean body-weight loss of less than 15% during the study and not more than one treatment-related (TR) death among ten treated animals. Any dosing regimen that results in greater toxicity is considered above the maximum tolerated dose (MTD). […]"}},
  "data": [
    {"molecule": "30C10: human anti-TMEFF1 IgG1 antibody; VH SEQ ID NO: 38, VL SEQ ID NO: 41 (antibody, V domains shown) VH: QVQLVESGGGVVQPGRSLRLSCAASGFTFSSYGMHWVRQAPGKGLEWVAVIWYDGSDKYYADSVKGRFTISRDNSKKTLYLQMNSLRAEDTAVYFCARETIFRGLTITFFDHWGQGTLVTVSS VL: EIVMTQSPATLSVSPGERATLSCRASQSVSSNLAWYQQKPGQAPRLLIYGASTRATGIPARFSGSGSGTEFTLTISSLQSEDFAVYYCQQYNNWPPTFGGGTKLEIK", "values": [
      {"measurement": "Binding region (epitope domain binding)", "setting": "[1]", "result": "FS1"},
      {"measurement": "Cell surface binding in fixed cells over the duration of the assay", "setting": "293-hTMEFF1 cells", "result": "consistent cell surface binding in fix cells"},
      {"measurement": "Competition binning (epitope bin)", "setting": "recombinant TMEFF1", "result": "compete with each other and bind FS1"}
    ]},
    {"molecule": "45D8: human anti-TMEFF1 IgG1 antibody; VH SEQ ID NO: 129, VL SEQ ID NO: 133 (antibody, V domains shown) VH: EVQLLESGGGLVQPGGSLRLSCAASGFTFSSYAMSWVRQAPGKGLEWVSTISGSGGSTYYADSVKGRFTISRDNSKNTLYLQMNSLRAEDTAIYYCAKFGVRGVIITNWFDPWGQGTLVTVSS VL: EIVMTQSPATLSVSPGERATLSCRASQSVSSNLAWYQQKPGQAPRLLIYGASTRATGIPARFSGSGSGTEFTLTISSLQSEDFAVYYCQQYNNWPLTFGGGTKLEIK", "values": [
      {"measurement": "Binding region (epitope domain binding)", "setting": "[1]", "result": "FS1"}
    ]},
    {"molecule": "30C10-PBD: antibody 30C10 conjugated to MA-PEG8-VA-PAB-SG3199 (Tesirine PBD), drug to antibody ratio 1.7 (conjugate) VH: QVQLVESGGGVVQPGRSLRLSCAASGFTFSSYGMHWVRQAPGKGLEWVAVIWYDGSDKYYADSVKGRFTISRDNSKKTLYLQMNSLRAEDTAVYFCARETIFRGLTITFFDHWGQGTLVTVSS VL: EIVMTQSPATLSVSPGERATLSCRASQSVSSNLAWYQQKPGQAPRLLIYGASTRATGIPARFSGSGSGTEFTLTISSLQSEDFAVYYCQQYNNWPPTFGGGTKLEIK", "values": [
      {"measurement": "efficacy and survival in H526 xenograft", "setting": "H526 xenografts; 1 mg/kg IV Q4Dx3, 98 day study", "result": "tumor regression, excellent efficacy and survival advantage over the control groups"},
      {"measurement": "mice body weight loss", "setting": "H526 xenografts; 1 mg/kg IV Q4Dx3, 98 day study", "result": "Little or no mice body weight loss"},
      {"measurement": "tumor free survivor (TFS) at the end of the study", "setting": "H526 xenografts; Day 98, 1 mg/kg IV Q4Dx3", "result": "5 out of 6"},
      {"measurement": "TGI", "setting": "H526 xenografts; compared to hIgG-PBD control group at Day 15, 1 mg/kg IV Q4Dx3", "result": 123.8, "unit": "%"},
      {"measurement": "TGD", "setting": "H526 xenografts; median TTE treated minus control, 1 mg/kg IV Q4Dx3", "result": 83, "unit": "days"}
    ]},
    {"molecule": "M10: human anti-TMEFF1 IgG1 antibody; VH SEQ ID NO: 124, VL SEQ ID NO: 128 (antibody, V domains shown) VH: QVQLVESGGGGVQPGRSLRLSCAASGFTFSRYGMHWVRQAPGKGLEWVAVIWYDGSDEYYADSVKGRFTISRDNSKNTLYLQMNSLRAEDTAVYYCARETMGRGIIISYFDYWGQGTPVTVSS VL: EIVMTQSPATLSVSPGERATLSCRASQSVSSNLAWYQQKPGQAPRLLIYGASTRATGIPARFSGSGSGTEFTLTISSLQSEDFAVYYCQQYNNWPPTFGQGTKLEIK", "values": [
      {"measurement": "Binding region (epitope domain binding)", "setting": "[1]", "result": "FS1"}
    ]}
  ]
}
